Test results: the RNAGym collection of RNA variant scans (doi:10.7554/elife.90254)
The source gives no read counts; variants with many changes may rest on few reads.

B1: LINE1-full (parent)
chain: UACGUAGGUGGUUUUCCCCUGAUAGUGCUAAGGGGGCCUGGAAGUUUGGACUGGGCAGAGCUCAACACAGCGUGGCAAAGUGGCUGUGGCUAGACUGCCUCUCUGGAUUCCUCGUCACUCAGCAGGGCAUCUCUGAGAGAAAUGCC

Variants of: B1
Test: self-cleavage, relative activity (ratio to wild type); higher = more cleavage; in vitro, sequencing; the parent is a self-cleaving ribozyme

| Variant | self-cleavage |
| --- | --- |
| A30U U39C A77G U91C A142G | 1.53 |
| U9C U39C C61A U81A U115C | 0.13 |
| C51U U100C U104G | 1.15 |
| C3U A30G U73C | 0.66 |
| A50U U62C U115G | 0 |
| U5C U13C A79G U115C | 0.79 |
| A57G U96A U109A | 0.22 |
| U14G A92U A121G A142G | 1.02 |
| A57U A67G G144A | 0.11 |
| U39C U119C A140G | 0 |
| U20G U73A U130C | 1.21 |
| C17U A64U U73A U87A A140G | 0.02 |
| U96C A138G G139A | 0.09 |
| A50G C128U A129U | 1.33 |
| U108C U119A U134A | 0.5 |
| U26C U52A U115A A141U A142G | 1.07 |
| A59G U96A A138G | 0.07 |
| U15C A57G U115C | 0 |
| U26A U81A G126A A138U | 1.3 |
| U20G A65G U132C | 0 |
| U15C U52C U102G | 1.15 |

| Variant | self-cleavage |
| --- | --- |
| A2G G32A A67C U87A | 0.26 |
| G35C U62C U119A | 0.06 |
| U20C U23C C76U A94G | 0.71 |
| G4A A77U U96A | 0.07 |
| U14C A30U U102C U104C | 2.3 |
| C61U A79G U119A | 0.04 |
| A22G A43U C76U | 0.82 |
| A31G A50G A65C U132C G139U | 0 |
| A30G G32A U81A A107G U112C A138U | 0 |
| G7A A67U A117U | 0.09 |
| U12G U100C A129U | 1.04 |
| U12C C71U A78U A94G U134C A142G | 0.22 |
| A129U A140C A141G | 1.46 |
| U39A A94G A140C | 0.29 |
| C19U G35U U87A U108C U119A C131U U143A | 0.09 |
| U9C U46C A141G | 2.44 |
| A6G G27A A31G A142G | 1.1 |
| U47C U62C U115C | 0.21 |
| C17U U20A A64U A92U U102C | 0.26 |
| U45A A65G A141G | 0.06 |
| U39C A65U U115C A138G | 0.25 |

| Variant | self-cleavage |
| --- | --- |
| U13C U62C A69G U109A | 0.19 |
| U12C A43U A65G G70A A77U | 0.1 |
| A22G C28U G32U A57U A65G | 0.09 |
| G72A U73A A124G | 1.04 |
| A59G U73A A79U | 0.02 |
| G11A G33U A57U U62C G80A | 0.02 |
| U14C C19U A65G U85A A138G A140G | 0 |
| A107U U119C A141U | 2.33 |
| G7C U15C A77G G93A U115C | 0 |
| U1C U73A U134C A138G | 0 |
| U23A A42U U46C | 1.47 |
| U45C G88A G127A | 0.08 |
| U26A U46C U81A | 1.89 |
| A57C A77G C98U | 0.03 |
| A42U A69U U96A A142C | 0 |
| G36U A78G U104A U143G | 1.54 |
| A65G U73C U85C | 0 |
| A42U A77U U81A | 2.03 |
| G8U A77U U112C | 1.62 |
| A42G U109C U112C A142G | 1.41 |
| A2G U45A U62C U85G | 0.79 |

| Variant | self-cleavage |
| --- | --- |
| A2G U9A C38U G106C | 0.65 |
| U14C G32A A42G G137A | 1.15 |
| U13C U29A A43G U108C | 1.11 |
| A6G A64G A69G U87A | 0.44 |
| A6G U15A G36C A121U C131U | 1.15 |
| C3U A43G C84U | 0.11 |
| A67G U73A U87A | 0.06 |
| A2U A22U A141G | 1.12 |
| C66U G126A U132C | 0.1 |
| U12C G35C A65G | 0.29 |
| A22G U100C C116U A138G A140G | 0.96 |
| U12G A67U U81A | 0.11 |
| A22G U73C U132A | 0.92 |
| U47C A107U U112C | 1.15 |
| U12C U96A G106U A129G | 0.1 |
| G4A C28U U62C U73A | 0.06 |
| U39A U62C U73A A138G | 0.05 |
| U29C A30G A129U U134A | 1.11 |
| A64U A79G A94U | 0.22 |
| A24C C76U U132A | 2.42 |
